The other results are listed elsewhere or left out. Single values are uncertain, as repeats are few or missing.
What follows are molecules tested on WM115 (assay: cell count relative to DMSO control; melanoma cells; higher = more viable cells). Conditions: library dose: low library concentration; 72 h.
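Note: cell number obtained by counting DAPI-stained nuclei in high-throughput microscope images with image analysis software, screen run in 1,536-well plates.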

| Compound | cell count [%] |
| --- | --- |
| O=C(CCCCCCC(=O)Nc1ccccc1)NO [vorinostat] + NCC(=O)Nc1ccc(-n2nc(C(F)(F)F)cc2-c2ccc3c(ccc4ccccc43)c2)cc1 [OSU03012] (first compound 0.08 µM, partner dose 1 µM) | 77.7 |
| Cn1c(Nc2ccc(C(F)(F)F)cc2)nc2cc(Oc3ccnc(-c4ncc(C(F)(F)F)[nH]4)c3)ccc21 + O=C(CCCCCCC(=O)Nc1ccccc1)NO [vorinostat] (first compound 0.08 µM, partner dose 0.08 µM) | 57.9 |
| Nc1cccc2c1CN(C1CCC(=O)NC1=O)C2=O (stereo unspecified) [lenalidomide] + CN(NC(=O)CC(=O)NN(C)C(=S)c1ccccc1)C(=S)c1ccccc1 [STA4783] (first compound 1 µM, partner dose 0.006 µM) | 83.2 |
| C#Cc1cccc(Nc2ncnc3cc(OCCOC)c(OCCOC)cc23)c1 [erlotinib] + COc1cc2ncnc(Nc3ccc(Oc4ccccc4)cc3)c2cc1OC [SrcI1] (first compound 0.8 µM, partner dose 2 µM) | 94.5 |
| Cn1c(Nc2ccc(C(F)(F)F)cc2)nc2cc(Oc3ccnc(-c4ncc(C(F)(F)F)[nH]4)c3)ccc21 + Cc1ccc(NC(=O)c2cccc(N(C)C)c2)cc1NC(=O)c1ccc(O)cc1 [ZM336372] (first compound 0.08 µM, partner dose 2 µM) | 50.7 |
| Clc1ccc(Nc2nnc(Cc3ccncc3)c3ccccc23)cc1 [vatalanib] + CCCCCCCCCCCC1=C(O)C(=O)C=C(O)C1=O [Embelin] (first compound 2 µM, partner dose 1.2 µM) | 88.9 |

— the supplement of paper PMC4604168 (melanoma cell lines)
